Measurements published in US4301065A, “Novel polypeptides having thymic activity or an antagonistic activity and processes for their synthesis” (Agence Nationale de Valorisation de la Recherche (ANVAR), priority 1977, dated 1981).
“And” between values parts separate entries of the source, which are not always exact repeats. Equal entries are not always repeated. Part of at least one peptide drawing is inferred or uncertain, most often the ends. Some entries repeat one wording, which the source may state once for all of them. Square brackets hold non-standard residues; d marks the D form. Ends that are not written are not given here. Peptide text beside a SMILES is read from it. * marks the point of attachment. pGlu = O=C1CC[C@@H](C(=O)O)N1; Ahp(2) = CCCCC[C@H](N)C(=O)O; Orn = NCCC[C@H](N)C(=O)O; Cbz = O=C(OCc1ccccc1)*

How the values were obtained:
[1] = tested on: rosette-forming cells of the spleen of thymectomised mice; assay: Test in vivo on the spleen: correction of the reactivity of rosette-forming spleen cells to azathioprine
Method: (3) Correction of the abnormal reactivity of the cells forming the rosettes of the spleen with azathioprine in thymectomised mice 24 hours after injecting the peptide (0.1, 1 and 10 ng) bonded to the carboxymethyl cellulose.
The tests on the spleen were carried out by determining the quantity of azathioprine which is necessary for inhibiting the rosette-forming cells of the spleen of thymectomised mice after an established time (24 hours and possibly also 48 hours) after the injection of an established quantity of polypeptide (0.1, 1 or 10 ng).

[2] = tested on: cells of the spleen forming rosettes (RFC); assay: Rosette test in vitro (thymic activity); assay type: cell-based, adult C 57/B1 6 mice; settings: for Activity in vitro: Table I; for Active concentration (ng/ml) (test in vitro): azathioprine 10 μg/ml, 90 minutes at 37° C.
Method: The thymic activity of the polypeptide is established by incubation in a hemolysis tube with 3×10^6 cells of the spleen originating from adult C 57/B1 6 mice (supplied by the Centre d'Elevage des Animaux de Laboratoire of C.N.R.S. (45 Orleans, La Source), thymectomised 10 to 20 days previously. The thymectomy method is described by M. Dardenne and J. F. Bach in Immunology, 25, 343 (1973) on page 344. The contents of this article are incorporated herein by reference.
The incubation is carried out for 90 minutes at 37° C. in the presence of azathioprine (Az) at a concentration of 10 μg/ml.
On completion of the incubation, 12×10^6 red cells from sheep's blood (SRBC) are added to the cells in the test specimen. The cells in the specimen are centrifuged for 6 minutes at 200 g and carefully brought gently into suspension by rotation on a roller (diameter 10 cm) at a low speed (10 r.p.m.). The RFC are counted in a hematocytometer.
(1) Activity in vitro in the rosette test.

[3] = tested on: antibodies; assay: Bonding with the antibodies; assay type: binding; set-up: key: +: the peptide is bonded; -: is not bonded to the antibodies
Excerpt: The suitability of the peptides for being bonded to the antibodies is indicated by the + and - symbols, which respectively signify that the peptide is bonded or is not bonded to the antibodies.

[4] = tested on: thymectomised mice; assay: Activity in vivo: study of the serum after injection of peptide absorbed on carboxymethyl cellulose; settings: for Activity in vivo: Table I, thymectomised mice; for Active or inactive polypeptide (conclusion from Tables I to IV): overall judgement of the tests in vitro and in vivo; for Retarding activity: appreciable activity 4 hours after injection (serum) and 48 hours after injection (spleen)
Method: The peptides active in vitro were also checked in tests carried out in vivo. Injected into 6 weeks old thymectomised mice and used 8 weeks after the thymectomy, the peptides produce the appearance at the 15th minute in the serum of a biological activity conferring the sensitivity to the azothioprine of the spleen cells forming rosettes. […] (2) Activity in vivo (study of the serum 2 hours and 4 hours after injection into thymectomised mice in different quantities (0.1, 1 or 10 ng) of peptide absorbed on carboxymethyl cellulose). The results of the tests in vivo on the serum and on the spleen, set out in Tables II, III and IV, were established by the procedure as previously indicated.

[5] = Table II, quantity injected 0,1 ng, individual values
[6] = Table IV, quantity injected 0,1 ng, individual values
[7] = Table IV, quantity injected 1 ng, individual values
[8] = Table IV, quantity injected 10 ng, individual values
[9] = Table IV, quantity injected 50 ng, individual values

Molecule	Spleens (test in vivo) 24 hours after injection: Quantity of azathioprine [1, 5]	Activity in vitro [2]	Active concentration (ng/ml) (test in vitro) ([2]; Table II)	Bonding with the antibodies ([3]; Table I)	Bonding with the antibodies ([3]; Table II)	Activity in vivo [4]	Active or inactive polypeptide (conclusion from Tables I to IV) [4]	Spleens (test in vivo) 24 hours after injection: Quantity of azathioprine [1, 6]	Active concentration (ng/ml) (test in vitro) ([2]; Table III)	Bonding with the antibodies ([3]; Table IV)	other results
C[C@H](NC(=O)[C@@H]1CCC(=O)N1)C(=O)N[C@@H](CCCCN)C(=O)N[C@@H](C)C(=O)N[C@@H](CCC(N)=O)C(=O)NCC(=O)NCC(=O)N[C@@H](CO)C(=O)N[C@@H](CC(N)=O)C(=O)O [Peptide 65, PyroGlu-Ala-Lys-Ala-Gln-Gly-Gly-Ser-Asn] ([pGlu]AKAQGGSN-OH)	50 µg	inactive: -	< 0,03 ng/ml	-	+	inactive: -	inactive				
CC(=O)NCCCC[C@H](NC(=O)[C@H](C)NC(=O)[C@@H]1CCC(=O)N1)C(=O)N[C@@H](CO)C(=O)N[C@@H](CCC(N)=O)C(=O)NCC(=O)NCC(=O)N[C@@H](CO)C(=O)N[C@@H](CC(N)=O)C(=O)O [Peptide 62, PyroGlu-Ala-Lys(Ac)-Ser-Gln-Gly-Gly-Ser-Asn] ([pGlu]AK(Ac)SQGGSN-OH)		inactive: -		+		+R	active	6 µg and 3 µg	< 0,06 ng/ml	+	Spleens (test in vivo) 24 hours after injection: Quantity of azathioprine (μg) [1, 6]: 1,5 μg; Spleens (test in vivo) 48 hours after injection: Quantity of azathioprine [1, 7]: 12 µg and 3 µg and 6 µg; Spleens (test in vivo) 48 hours after injection: Quantity of azathioprine [1, 8]: 3 µg; Spleens (test in vivo) 48 hours after injection: Quantity of azathioprine (μg) [1, 8]: 1,5 μg; Spleens (test in vivo) 48 hours after injection: Quantity of azathioprine (μg) [1, 9]: 0,7 μg and 1,5 μg; Retarding activity [4]: retarding activity
QAKSQGGSN [Peptide 18, Gln-Ala-Lys-Ser-Gln-Gly-Gly-Ser-Asn]		active: +		+	+	active: +	active				Spleens (test in vivo) 24 hours after injection: Quantity of azathioprine (μg) [1, 5]: 0,3 μg (2×) and 0,7 μg; Spleens (test in vivo) 24 hours after injection: Quantity of azathioprine (μg) ([1]; Table II, quantity injected not printed on this line): 0,3 μg
NCCCC[C@@H](N)C(=O)N[C@@H](CO)C(=O)N[C@@H](CCC(N)=O)C(=O)NCC(=O)NCC(=O)N[C@@H](CO)C(=O)N[C@@H](CC(N)=O)C(=O)O [Peptide 83, D-Lys-Ser-Gln-Gly-Gly-Ser-Asn] (H-[dK]SQGGSN-OH)	50 µg	inactive: -	< 0,03 ng/ml	+	+	inactive: -	inactive				
C[C@@H](NC(=O)[C@@H]1CCC(=O)N1)C(=O)N[C@@H](CCCCN)C(=O)N[C@@H](CO)C(=O)N[C@@H](CCC(N)=O)C(=O)NCC(=O)NCC(=O)N[C@@H](CO)C(=O)N[C@@H](CC(N)=O)C(=O)O [Peptide 47, PyroGlu-D-Ala-Lys-Ser-Gln-Gly-Gly-Ser-Asn] ([pGlu][dA]KSQGGSN-OH)		inactive: -	< 0,03 ng/ml	+	+	inactive: -	inactive				Spleens (test in vivo) 24 hours after injection: Quantity of azathioprine ([1]; Table II, quantity injected 1 ng, individual values): 50 µg; Spleens (test in vivo) 24 hours after injection: Quantity of azathioprine ([1]; Table II, quantity injected 10 ng, individual values): 25 μg (2×) and 50 μg
NCCC[C@H](N)C(=O)N[C@@H](CO)C(=O)N[C@@H](CCC(N)=O)C(=O)NCC(=O)NCC(=O)N[C@@H](CO)C(=O)N[C@@H](CC(N)=O)C(=O)O [Peptide 84, Orn-Ser-Gln-Gly-Gly-Ser-Asn] (H-[Orn]SQGGSN-OH)	50 µg	inactive: -	< 0,03 ng/ml	+	+	inactive: -	inactive				
CCCCC[C@H](N)C(=O)N[C@@H](CO)C(=O)N[C@@H](CCC(N)=O)C(=O)NCC(=O)NCC(=O)N[C@@H](CO)C(=O)N[C@@H](CC(N)=O)C(=O)O [Peptide 87, Hep-Ser-Gln-Gly-Gly-Ser-Asn] (H-[Ahp(2)]SQGGSN-OH)		inactive: -		+		inactive: -	inactive	3 µg	< 0,03 ng/ml	+	
NCCCC[C@H](NC(=O)OCc1ccccc1)C(=O)N[C@@H](CO)C(=O)N[C@@H](CCC(N)=O)C(=O)NCC(=O)NCC(=O)N[C@@H](CO)C(=O)N[C@@H](CC(N)=O)C(=O)O [Peptide 85, Z-Lys-Ser-Gln-Gly-Gly-Ser-Asn] (Cbz-KSQGGSN-OH)	50 μg (2×) and 25 μg	inactive: -	1.10^-3 ng/ml	+	+	inactive: -	inactive				
C[C@H](NC(=O)[C@@H]1CCC(=O)N1)C(=O)N[C@@H](CCCCN)C(=O)N[C@@H](CO)C(=O)N[C@@H](CCC(N)=O)C(=O)N[C@H](C)C(=O)NCC(=O)N[C@@H](CO)C(=O)N[C@@H](CC(N)=O)C(=O)O [Peptide 89, PyroGlu-Ala-Lys-Ser-Gln-D-Ala-Gly-Ser-Asn] ([pGlu]AKSQ[dA]GSN-OH)		inactive: -		+		+R	active	6 μg (2×) and 12 μg	< 0,03 ng/ml	+	Spleens (test in vivo) 48 hours after injection: Quantity of azathioprine [1, 7]: 25 µg; Spleens (test in vivo) 48 hours after injection: Quantity of azathioprine [1, 8]: 12 μg and 6 μg (2×); Spleens (test in vivo) 48 hours after injection: Quantity of azathioprine [1, 9]: 3 µg; Spleens (test in vivo) 48 hours after injection: Quantity of azathioprine (μg) [1, 9]: 1,5 μg; Retarding activity [4]: retarding activity
C[C@H](NC(=O)[C@@H]1CCC(=O)N1)C(=O)N[C@H](CCCCN)C(=O)N[C@@H](CO)C(=O)N[C@@H](CCC(N)=O)C(=O)NCC(=O)NCC(=O)N[C@@H](CO)C(=O)N[C@@H](CC(N)=O)C(=O)O [Peptide 61, PyroGlu-Ala-D-Lys-Ser-Gln-Gly-Gly-Ser-Asn] ([pGlu]A[dK]SQGGSN-OH)		active: +		+		+R	active		2.10^-6 ng/ml	+	Spleens (test in vivo) 24 hours after injection: Quantity of azathioprine (μg) [1, 6]: 0,7 μg (2×) and 1,5 μg; Spleens (test in vivo) 48 hours after injection: Quantity of azathioprine [1, 7]: 50 µg; Spleens (test in vivo) 48 hours after injection: Quantity of azathioprine [1, 8]: 25 μg (2×) and 50 μg; Spleens (test in vivo) 48 hours after injection: Quantity of azathioprine [1, 9]: 6 μg and 12 μg (2×); Retarding activity [4]: retarding activity
C[C@H](NC(=O)[C@@H]1CCC(=O)N1)C(=O)N[C@@H](CCCN)C(=O)N[C@@H](CO)C(=O)N[C@@H](CCC(N)=O)C(=O)NCC(=O)NCC(=O)N[C@@H](CO)C(=O)N[C@@H](CC(N)=O)C(=O)O [Peptide 63, PyroGlu-Ala-Orn-Ser-Gln-Gly-Gly-Ser-Asn] ([pGlu]A[Orn]SQGGSN-OH)		inactive: -		+		inactive: -	inactive	50 µg	< 0,03 ng/ml	+	
